# Results reported in patent US8912225B2, “VEGF inhibition” (Pitney Pharmaceuticals Pty Limited, priority 2004, dated 2014).
# What was measured:
# [1] = system: VEGF secretion from SKOV-3 cells; assay: In vitro VEGF secretion by SKOV-3 cells (ELISA), with or without MMP-9 stimulation; conditions: 6 hours
# [2] = system: peritoneal OVCAR-3 tumours; assay: Albendazole treatment of OVCAR-3 peritoneal tumour bearing nude mice (ascites volume, VEGF ELISA); assay type: in vivo, nude female athymic Balb c nu/nu mice; conditions: intra-peritoneal, 150 mg/kg x3 weekly for 4 weeks, OVCAR-3 tumour bearing mice
# [3] = system: retinal neovascularisation; assay: Murine model of proliferative retinopathy (ROP), retinal neovascularisation, blood vessel count; assay type: in vivo, C57BL/6 mice
# Protocol: The ability of albendazole to serve as a potential inhibitor of age-related macular degeneration (AMD) was evaluated in a well-established murine model of retinal neovascularisation, ROP (retinopathy of prematurity), relevant to AMD.
# Postnatal day 6 (P6) C57BL/6 mice were exposed to hyperoxic (75% oxygen) for 4 days in Quantum-Air Maxi-Sealed cages (Hereford, UK). P10 mice were returned to normoxia, anaesthetized (17 mg/kg ketamine and 2.5 mg/kg xylazine) and bolus intravitreal injections of volume 2 μl, containing 0.1, 1 or 10 μg albendazole in DMSO; DMSO alone or 1×PBS alone were administered using a 26 gauge beveled needle attached to a micro syringe (SGE International, Melbourne, Australia). Mice remained at room oxygen for a further 7 days then eyes were removed and fixed in 10% formalin/PBS. Serial cross sections (50 microns) were stained with haematoxylin and eosin. Blood vessels from each, group were counted under light microscopy (400×) and expressed as the mean±SEM.
# Statistical analysis of the results shown graphically in FIG. 9 was performed using a 2-tailed Student's t-test with unequal variance (Table 1).
# [4] = system: VEGF mRNA (VEGF121, VEGF165, VEGF189, VEGF206); assay: RT-PCR of VEGF mRNA isoforms in OVCAR-3 cells isolated from ascites fluid of treated mice; assay type: in vivo, nude mice; conditions: intra-peritoneal, 150 mg/kg x3 weekly for 4 weeks; cells from ascites fluid or peritoneal wash
# Protocol: OVCAR-3 cells isolated from ascites fluid of nude mice bearing tumours (as described above) were examined for the expression of mRNA for various VEGF isoforms (VEGF121, VEGF165, VEGF189, VEGF206) by RT-PCR. Cells were separated through centrifugation (5 min at 1500 rpm) and total RNA was isolated from the remaining cell-pellet by using the High Pure RNA Isolation Kit (Roche Diagnostics Corporation) according to the manufacturer's protocol. The RNA concentration was measured in a spectrophotometer at the wavelength of 260 nm using a Quartz Spectrophotometer Cell (BioRad).
# Primers for amplification of VEGF were constructed on the basis of the sequences presented in Pellizzaro et. al 2002; VEGF sense: 5′-CACATAGGAGAGATGAGCTTC-3′ (SEQ ID NO:1); VEGF antisense: 5′-CCG CCT CGG CTT GTC ACA T-3′ (SEQ ID NO:2). These primers amplify the following products: 100 bp for VEGF121, 230 bp for VEGF165, 300 bp for VEGF189 and 320 bp for VEGF206. […]
# The RT-PCR products were visualized by electrophoresis (25 min at 120V) on 2% agarose gel in 1×TAE buffer containing ethidium bromide. To quantify the size of the products a 100 bp DNA ladder (Invitrogen) was run with the samples.
compound,measurement,setting,value
"CCCSc1ccc2nc(NC(=O)OC)[nH]c2c1 [albendazole, methyl 5-propylthio-IH-benzimidazole-2-yl carbamate]",reduction in VEGF concentration,"[1]; SKOV-3 cells stimulated with MMP-9 (6 ng/ml), 1 μM",65%
same,excess VEGF secretion induced by MMP-9 stimulation,"[1]; SKOV-3 cells, 0.1 μM, MMP-9 6 ng/ml",blocked the excess VEGF secretion
same,reduction in VEGF concentration,"[1]; SKOV-3 cells, 1.0 μM, absence of MMP-9",64%
same,"VEGF secretion, dose dependence","[1]; SKOV-3 cells, 0.1, 0.25 and 1.0 μM",dose-dependent reduction
same,VEGF levels (ascites fluid and plasma),[2],dramatic reductions
same,ascites volume,[2],dramatic reductions
same,"adverse or toxic reaction, retinal morphology (haematoxylin and eosin sections)",[3]; intravitreal injection in DMSO v DMSO alone,no adverse or toxic reaction
same,lowest amount at which inhibition of retinal angiogenesis was observed,[3]; single intravitreal injection,1 µg
same,hyperoxia-induced retinal angiogenesis,"[3]; single intravitreal injection, 0.1, 1 or 10 μg in 2 μl, hyperoxia-exposed mice",significantly inhibited
same,expression of VEGF mRNA,[4],significant reduction
